Measured values as given in PMC7819943, “Rice protein-binding microarrays: a tool to detect cis-acting elements near promoter regions in rice”.
The other results are listed elsewhere or left out.

Target: T1, OsWOX13 (Oryza sativa, UniProt Q5QMM3 1-267)
T1 sequence: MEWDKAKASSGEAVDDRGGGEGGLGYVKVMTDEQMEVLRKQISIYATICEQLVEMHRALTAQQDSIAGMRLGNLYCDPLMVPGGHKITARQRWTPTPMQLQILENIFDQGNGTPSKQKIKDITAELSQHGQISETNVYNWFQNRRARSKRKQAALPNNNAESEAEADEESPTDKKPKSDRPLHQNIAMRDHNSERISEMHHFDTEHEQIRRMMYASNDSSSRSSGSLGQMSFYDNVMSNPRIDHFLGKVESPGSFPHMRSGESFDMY
Test: protein-binding microarray (RPBM); PBS, 2% BSA, 51.3 ng/ul salmon testes DNA, 50 uM zinc acetate, 200 nM TF, 25 C, 1 h; high values mean tight binding
Settings: protein: recombinant; tags: N-terminal polyhistidine and DsRed monomer fusion (pET32a); label: CyDye5-dUTP incorporated in the synthesized complementary strand; 3' TTTTT single-stranded linker to array surface; dsDNA, one strand shown
How it was run: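 The binding signal is fluorescence intensity per feature, in arbitrary units, read on an Axon 4000B scanner. Polyhistidine- and DsRed-tagged transcription factors (N-terminal fusions) from E. coli BL21-CodonPlus were purified on Ni–NTA and applied at 200 nM for 1 h at 25 °C to a double-stranded, BSA-blocked custom Agilent array in buffer with 50 µM zinc acetate.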

Sequence | binding signal
AAACAAATTAACAGTATATTTTGAAATTTATTTCGAATACCGGAGTCACCTAGTGCAG | 16800 fluorescence intensity (a.u.)
TATGAGCGTGAACTGATTGGACTTGTCCAAGCAGTTCGCCCGGAGTCACCTAGTGCAG | 5720 fluorescence intensity (a.u.)
AGGACCATCATAATCGTAATCATCACACCAACAACATCGCCGGAGTCACCTAGTGCAG | 3150 fluorescence intensity (a.u.)
GTTCTTCCTCTCTGATTGCTCAACGACAAGTGGTCAACACCGGAGTCACCTAGTGCAG | 3790 fluorescence intensity (a.u.)
TGCATATATATTCTAATTAGCGCACATGCACACACACCTTCGGAGTCACCTAGTGCAG | 4760 fluorescence intensity (a.u.)
AGCTTAATGTGATGTATGTTGTGCAGTAGAACAAAGTTCCCGGAGTCACCTAGTGCAG | 3830 fluorescence intensity (a.u.)
TAAGCTCATTGTTCATGTGACGTATACGAACATCTCAGTACGGAGTCACCTAGTGCAG | 3670 fluorescence intensity (a.u.)
TAATCTAGATTATTGAGCCAGATTACTATAGCTAGATTATCGGAGTCACCTAGTGCAG | 3750 fluorescence intensity (a.u.)
GATCTAATCGATGACACCAATCATGATACTCCCTACATAACGGAGTCACCTAGTGCAG | 8120 fluorescence intensity (a.u.)
ATTCGTAACCACTTAATTACCCATTTATCCCCTTCTGATTCGGAGTCACCTAGTGCAG | 10600 fluorescence intensity (a.u.)
ATGGATTAATTAGGCTCAATAGATTCGTCTCGTGAATTAGCGGAGTCACCTAGTGCAG | 29300 fluorescence intensity (a.u.)
GGCCATGTTAATTTTGCTCTACAATTTCTAACGAATTTAGCGGAGTCACCTAGTGCAG | 3990 fluorescence intensity (a.u.)
ATCTGATTATCCCCAAAATTGAAAGCACGCTCCATCTGCTCGGAGTCACCTAGTGCAG | 48600 fluorescence intensity (a.u.)
TTTTCCAGAATTAATTTTGTAAATATATGGAAAATTATGTCGGAGTCACCTAGTGCAG | 3400 fluorescence intensity (a.u.)
GTAAATTTATTAATTATTTTACAATATAGCATTTGGCTAACGGAGTCACCTAGTGCAG | 45300 fluorescence intensity (a.u.)
GTTAACTCGCTAATGACCTTATTATACTCCTGTTTCATCCCGGAGTCACCTAGTGCAG | 3450 fluorescence intensity (a.u.)
CTACCGTCCTGCAGCTGATTAAATCCTGATTCCGATTGCTCGGAGTCACCTAGTGCAG | 4180 fluorescence intensity (a.u.)
ATTTGATTTTGAGATAGATACCTCAAGAACACGAAGAACACGGAGTCACCTAGTGCAG | 7020 fluorescence intensity (a.u.)
TGGATTTATACTTGATTTGGTGCGTAGTATCAGGGGTATTCGGAGTCACCTAGTGCAG | 6760 fluorescence intensity (a.u.)
AGGAACAGTAAACATAGATTGATCCAAATCTTTCATCAGTCGGAGTCACCTAGTGCAG | 18500 fluorescence intensity (a.u.)
ATCGCAAATTTGGCTTCCTTTTCACCTTTCCTCGCTTCAACGGAGTCACCTAGTGCAG | 7180 fluorescence intensity (a.u.)

Sequence | binding signal
CTAAATTTAGAATTTTCAATCTTAAATTTAAAGATGATTTCGGAGTCACCTAGTGCAG | 14600 fluorescence intensity (a.u.)
GTATAATTATTGTCTACGATGTCTACTTCAACATTAAGTACGGAGTCACCTAGTGCAG | 21700 fluorescence intensity (a.u.)
CATTGTATGTTTATAGGTAATTATTGTATGAATTGGCTACCGGAGTCACCTAGTGCAG | 4760 fluorescence intensity (a.u.)
TCGTTAATACAAATTTCTGTTTAAAATTTCACATCTATTCCGGAGTCACCTAGTGCAG | 4400 fluorescence intensity (a.u.)
GTTAGACAGTTCACTTATTGTTGGTAGCTAGTGATCTGGACGGAGTCACCTAGTGCAG | 4590 fluorescence intensity (a.u.)
ACCTGCAAATTATTTCCAATCATTCGAGTCATTCGCTAAACGGAGTCACCTAGTGCAG | 31200 fluorescence intensity (a.u.)
GAAATCATTGACTGTCTTCTTTACCTGTTCTTTGGCAGAACGGAGTCACCTAGTGCAG | 15400 fluorescence intensity (a.u.)
AGCTTGTTAAATCAATTAATAAGCATTTGTTTAGTCTAAGCGGAGTCACCTAGTGCAG | 8810 fluorescence intensity (a.u.)
TAGCATTAAATTGAAGTATGGAATAGTGGTGTTTGTATTGCGGAGTCACCTAGTGCAG | 14200 fluorescence intensity (a.u.)
GGTATGATTTGCGCACTCATTCTGCAGATGGGGAAGAACTCGGAGTCACCTAGTGCAG | 21800 fluorescence intensity (a.u.)
CGTTTGAGCTATGATTGATGCATGAGTTGCAAGGATGCAACGGAGTCACCTAGTGCAG | 23700 fluorescence intensity (a.u.)
TCTCATCAATTGAATGGATATTATATTTTAATGTGTTCAGCGGAGTCACCTAGTGCAG | 8660 fluorescence intensity (a.u.)
ATTAAACTGCCATTAGCACATGTAGGTTACTGTAACACTTCGGAGTCACCTAGTGCAG | 12800 fluorescence intensity (a.u.)
TTGATTTTATTTACCGGATTATTGAAACAGATTATTTGTTCGGAGTCACCTAGTGCAG | 9450 fluorescence intensity (a.u.)
ATGATAATACCTTCTATCAACGGAGTACTAATTTCAGTAACGGAGTCACCTAGTGCAG | 5130 fluorescence intensity (a.u.)
TCTAATTGAGTGTCTACATATGCAGAGTTAATGCTTCTGGCGGAGTCACCTAGTGCAG | 30300 fluorescence intensity (a.u.)
ACAATAAATGTGAATAATTGTAGCAGCAGCACGAACGTAGCGGAGTCACCTAGTGCAG | 5950 fluorescence intensity (a.u.)
ATTCATTATATCCAATCTAATAGGCAATTCATACAATAGTCGGAGTCACCTAGTGCAG | 5120 fluorescence intensity (a.u.)
GATAGACTAATTGGTAAACACACATCAGAATATCAGATATCGGAGTCACCTAGTGCAG | 25100 fluorescence intensity (a.u.)
CATGTTAAACAATCTAGAATGACAATTAATATGGGATGGACGGAGTCACCTAGTGCAG | 8530 fluorescence intensity (a.u.)
GCGACCTAATCTCATCACTGATTACACCCAACAACAACACCGGAGTCACCTAGTGCAG | 15500 fluorescence intensity (a.u.)
